According to the supplement of paper PMC3334620:
In all, about 33,000 sequences were measured (“E-score (-0.5 to 0.5)”: median about -0.041, highest 2% from about 0.37 on). The list shows a part of the results.

Target: T1, Ecm22 (UniProt Q05958)
T1 sequence: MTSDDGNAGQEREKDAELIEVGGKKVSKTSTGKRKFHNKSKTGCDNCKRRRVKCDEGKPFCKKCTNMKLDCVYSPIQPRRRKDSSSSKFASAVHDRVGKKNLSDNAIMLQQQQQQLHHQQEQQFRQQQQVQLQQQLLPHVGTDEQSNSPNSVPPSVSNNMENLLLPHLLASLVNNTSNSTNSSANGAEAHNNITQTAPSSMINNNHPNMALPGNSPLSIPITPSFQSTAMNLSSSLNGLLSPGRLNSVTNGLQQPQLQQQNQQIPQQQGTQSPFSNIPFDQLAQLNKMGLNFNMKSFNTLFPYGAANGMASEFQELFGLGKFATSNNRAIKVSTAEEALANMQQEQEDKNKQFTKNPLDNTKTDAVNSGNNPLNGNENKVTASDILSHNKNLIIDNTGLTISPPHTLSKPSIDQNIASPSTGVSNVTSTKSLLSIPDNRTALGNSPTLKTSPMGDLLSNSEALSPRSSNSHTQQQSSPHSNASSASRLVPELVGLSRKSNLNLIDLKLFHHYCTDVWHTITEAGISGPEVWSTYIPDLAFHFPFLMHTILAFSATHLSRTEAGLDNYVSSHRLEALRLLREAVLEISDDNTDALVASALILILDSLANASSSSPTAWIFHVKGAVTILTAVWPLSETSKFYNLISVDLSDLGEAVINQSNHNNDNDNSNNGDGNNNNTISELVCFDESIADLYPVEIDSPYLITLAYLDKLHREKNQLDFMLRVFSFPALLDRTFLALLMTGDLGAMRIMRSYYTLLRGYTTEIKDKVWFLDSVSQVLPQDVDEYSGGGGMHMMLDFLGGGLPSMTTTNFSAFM
Test: PBM E-score (8-mer binding enrichment) (E-score (-0.5 to 0.5)); higher = stronger / more preferred TF binding; most listed sequences are background and not binding sites
Conditions: protein concentration: 200 nM; construct: GST-full length
In short: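 Masliner-normalised scans of fluorescent anti-GST signal were the basis for scoring. That signal came from GST-tagged yeast transcription factors applied at about 100-200 nM to double-stranded universal all-10-mer Agilent arrays on fresh or once-stripped slides. Each ungapped eight-base word, pooled with its reverse complement, received an E-score from the Universal PBM Analysis Suite.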

| Sequence | PBM E-score |
| --- | --- |
| CAATTTGA | -0.0301 |
| TACAACGA | 0.245 |
| AATACTTG | -0.118 |
| CACGCAGC | -0.0661 |
| ATAGATCG | 0.0896 |
| AGTACGTC | 0.0542 |
| CAAGTTAG | -0.183 |
| CTCTAAAA | -0.215 |
| GCAGCTAC | 7e-05 |
| AAGATTTA | -0.00972 |
| CCCATGCG | -0.11 |
| TATATCAA | 0.0243 |
| CGCCTAAA | -0.0216 |
| AGGTCAGC | 0.16 |
| AGTGACCC | -0.138 |
| ATTGATCA | -0.14 |
| AATATCGC | 0.0495 |
| CGCGATTA | 0.0714 |
| CCCAAACA | 0.00398 |
| GAGTTTCA | -0.116 |
| CCGTTGTA | 0.0903 |
| GCGTGTAC | 0.224 |
| CCACGCGC | -0.163 |
| GATTTCGC | 0.273 |
| CGCCAACC | -0.141 |

| Sequence | PBM E-score |
| --- | --- |
| GGTAGAAA | -0.0913 |
| GCATCTCC | -0.263 |
| AGCGAAAC | 0.314 |
| ACACTCTC | -0.0702 |
| CTTTTTCC | -0.068 |
| CCGCCACA | -0.107 |
| AGATATAT | -0.0126 |
| AACAACCT | -0.112 |
| AGGGTATC | 0.0248 |
| AACACGTC | -0.0705 |
| AAACAACG | 0.173 |
| AGGCCTTG | -0.189 |
| GAGGTCGA | -0.0264 |
| GTGGATAA | -0.0635 |
| AGAAGCCT | -0.149 |
| CGGTAGAG | -0.127 |
| CGGCCCGC | -0.146 |
| AGGCTGGC | -0.267 |
| AGTCCATG | -0.242 |
| GCTGATCC | -0.155 |
| ACCTGAAC | -0.123 |
| AAAATATC | 0.0138 |
| AGAATAAC | -0.105 |
| CGGTACAA | 0.214 |
| AAGATGGG | -0.183 |

| Sequence | PBM E-score |
| --- | --- |
| CGTTCTAA | 0.256 |
| GCCGTCGA | -0.125 |
| TCACCCAA | 0.0174 |
| CAACCACC | -0.177 |
| ATGGAGGG | -0.294 |
| ATTGCCGC | -0.111 |
| GGCTCCCA | -0.359 |
| ACACTTAT | 0.0913 |
| CACTTCAG | -0.242 |
| AATCCTCT | -0.249 |
| ACCGTACT | 0.285 |
| ACCGTTGA | 0.0678 |
| CTGACCCC | -0.149 |
| AACACAGC | 0.167 |
| CGGCTTGC | -0.0173 |
| CCACTCCC | -0.00522 |
| ATCTATAC | 0.237 |
| CATATCGA | -0.0294 |
| CAGGCGGC | -0.114 |
| GGTTGGGA | -0.0974 |
| CTCAACAC | 0.0118 |
| ACTTGTGA | -0.174 |
| AAGGTATG | -0.0619 |
| ATTCGAGA | 0.00532 |
| CTCCCGCA | 0.0888 |

| Sequence | PBM E-score |
| --- | --- |
| GACATCAA | -0.0459 |
| GGTAGTAC | 0.1 |
| ACCCACCC | -0.148 |
| TGAAAACA | -0.105 |
| AGAAAGCA | 0.0204 |
| AACACAAG | -0.179 |
| GCCCGAAC | 0.107 |
| ACTCCGTC | 0.106 |
| CCTCAACC | -0.0769 |
| AGCTAGCC | -0.164 |
| AAGTGGGA | -0.0267 |
| CTCTCGGC | -0.117 |
| GGAAGGAA | -0.023 |
| AGTCCCTC | -0.191 |
| AAGCCTGA | -0.248 |
| GTACTAGA | 0.148 |
| CGCGGTCA | -0.126 |
| ACTTACAG | -0.00651 |
| ACATCGGG | -0.0909 |
| GAACCTAC | 0.0124 |
| ACTTAGTA | 0.0607 |
| GCCGCAAC | 0.0256 |
| ATACAGAG | -0.0254 |
| AGTACGTG | 0.142 |
| ATCAACGC | 0.0236 |

| Sequence | PBM E-score |
| --- | --- |
| GGTGCCCA | -0.191 |
| GCTGACAA | -0.168 |
| AAAATCCC | -0.156 |
| CTTGCAAC | -0.0385 |
| GATAGCGA | 0.0746 |
| CCTGTGCC | -0.117 |
| CTGGTCCA | -0.135 |
| ATACCGCA | 0.0296 |
| CTCAGGCA | -0.1 |
| AGAAGAAG | -0.0806 |
| CCAGCTAG | -0.105 |
| ATACAGGG | -0.0486 |
| CTCTACTA | -0.0921 |
| CAGTCTCG | 0.0311 |
| ATACGCGA | 0.345 |
| CCGATGCA | 0.0235 |
| AATACGAT | 0.384 |
| CCGGATCA | -0.0894 |
| GTTGGCGA | 0.104 |
| AAAGAGGG | -0.0291 |
| CTGCCATA | 0.0699 |
| AGCGCTAC | -0.00179 |
| TGGATCCA | -0.0833 |
| GGCGAAAC | 0.0251 |
| GTAGATGA | 0.0274 |

| Sequence | PBM E-score |
| --- | --- |
| GATCCCAC | -0.0724 |
| ATTTGCGC | 0.0384 |
| AGTGTTAT | -0.0953 |
| AATCTTAG | -0.166 |
| ATGATCCA | -0.19 |
| ACTACGTA | 0.211 |
| ACACCATA | 0.0278 |
| CCCATCTA | -0.247 |
| AGCATATC | -0.0534 |
| GCGTTTGA | 0.0263 |
| AATATTGT | -0.0139 |
| AATCTAAC | 0.00451 |
| TAACCATA | -0.0509 |
| AATTCGCC | -0.0198 |
| GCGGGCAA | 0.0284 |
| ATAGCTGC | -0.11 |
| CTACGTGA | -0.0188 |
| CCCGAGAG | -0.00661 |
| CCCAACTA | -0.0623 |
| CTAAGTCA | -0.17 |
| GGTTGGCA | -0.0499 |
| CATTCGTC | 0.112 |
| TCTAGGAA | -0.0513 |
| GAGAAAGA | -0.0939 |
| GACTGAAA | 0.0006 |

| Sequence | PBM E-score |
| --- | --- |
| AGCCATCA | -0.0177 |
| CGAAAACC | 0.228 |
| CGTTAACC | 0.284 |
| AATATTAT | 0.0325 |
| GAACAGCC | -0.0804 |
| ACATTCGG | 0.0251 |
| AGAGTCAC | -0.192 |
| ACTAGTAA | -0.181 |
| CACTTGGA | 0.00049 |
| CAGGTAGG | -0.25 |
| AGATACTA | -0.17 |
| AGGCCCTA | -0.275 |
| GAGCAAAA | -0.104 |
| ATCCAGGA | -0.279 |
| CACTACGC | -0.27 |
| TGACTACA | -0.0398 |
| AACCATAC | 0.141 |
| CTCCCTCC | -0.261 |
| CAACTGCG | 0.0233 |
| AGGGGTGG | -0.0647 |
| GATCAAGC | 0.148 |
| CAAGACTG | -0.259 |
